# Source: the supplement of paper PMC11417369
# ± gives the standard deviation of the averaged measurements. The list shows a part of the results.
# System: PfAP2-G AP2 domain (GST-tagged)
# Assay: gcPBM binding intensity (ln(normalized median fluorescence intensity)); higher = stronger DNA binding
# Summary of the method: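 An Agilent 4 × 180k array carrying primer-extended double-stranded 36-bp intergenic genomic probes and negative controls received GST-tagged P. falciparum DNA-binding domains expressed in E. coli, about 25 μg on average, for 1 h. The binding buffer contained 1× PBS, 1% milk, 0.2 mg/ml BSA, 0.5% salmon testes DNA and 0.03% Triton X-100. Binding intensity is the top Masliner-normalised natural-log median intensity across replicate spots of either probe orientation, read after Alexa488 anti-GST antibody staining and a 488 nm scan.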
row,Sequence,gcPBM binding intensity (ln)
1,AAAAATATAATATAATGTACACAAAAAAAAAAAATC [XGTACX_site1427],11.4 ± 0.71
2,TATGAAGACACAAATACACACACTCAAAAAAAAAAA [CACACA_site2660],10.1 ± 0.38
3,GAAAAAAAAAAAAAAAAACACACGGTACATTCAAAG [CACACA_site303],10.4 ± 0.16
4,AAAAAATATTTTAGTGGTACATTTGTAGCTCTCAAA [XGTACX_site4859],11.2 ± 0.7
5,AATCAAATATTTAAATGTACTCAAGAAGGCTTAATC [XGTACX_site6907],11.4 ± 1
6,ATAACATGAACATATGTTACACAAACATACATACAT [XGTACX_negctrl_site365],10.3 ± 0.21
7,AAATTATAATTAGGAACACACATATATATATATATA [CACACA_site3098],10.3 ± 0.46
8,TACATACATACATACATACACACATATATATATATA [CACACA_site1996],10.6 ± 0.37
9,TACATGTATAATATAATACACACTATATAATATACA [CACACA_site2239],9.98 ± 0.18
10,TTATTGTTTATTAAATGTACAGATTCGTTAAAATTA [XGTACX_site3041],11 ± 0.54
11,TAAATAAATACATACACACACATACATATATATATA [CACACA_site3129],10.2 ± 0.4
12,TACACAAAACATAAAAGTACATAATAATAAAGTTAA [XGTACX_site8872],11.3 ± 0.6
13,GAACAAATAAAAAGGAGTACAATCAAATCTACGTAT [XGTACX_site343],11.6 ± 0.89
14,ACAACAATATGGAATTGTACATATATATATAAATAT [XGTACX_site3139],10.8 ± 0.53
15,TATTTTTTTGTGTTTGGTACACACGTTATAAAAAAT [XGTACX_site2655],11.2 ± 0.8
16,CTAGCAAATACATACACACACACACCCATACATATA [CACACA_site3496],10.2 ± 0.25
17,CACTAAAATGGACACACACACACACCGATATATATA [CACACA_site6139],11 ± 0.69
18,ATCGCATAAAGACAAGAACACACATATATATTGTAG [CACACA_site9229],9.995 ± 0.007
19,AATAAATATAGGAATACACACAATATAAATGTATTG [CACACA_site3366],10.02 ± 0.071
20,TTATAATAAATATGAAGTACTATAAATATGGTATAT [XGTACX_site5448],11.2 ± 0.63
21,ATTTGGCATAAACACACACACACACCCACCCACATA [CACACA_site8096],10.6 ± 0.38
22,TTTTTATTGAGAACAGTGCAAATAACAAAAAAAAAA,10.3 ± 0.2

row,Sequence,gcPBM binding intensity (ln)
1,TGGAAAATTATAAGGTGTACATATAAGCTATTATAT [XGTACX_site118],11.5 ± 0.79
2,TTTTTTTTTTTAAGGTGTACAATAAAAATTTATGCA [XGTACX_site8860],11.6 ± 0.93
3,CATTTTTTAAGCATCACACACGAAAGAACAAAGTGG [CACACA_site4755],10.6 ± 0.38
4,CATATATAAAATATATGTACTTATAGAACATAATTT [XGTACX_site1936],11.3 ± 0.45
5,ACTTTTTCACATAAAAATGATCCGATTAGTAATAAT [XGTACX_negctrl_site248],9.97 ± 0.11
6,AAATAAAAAAACTATTGTACTGAATACAAATTAAAT [XGTACX_site3793],10.8 ± 0.47
7,ATAATATTAGTAAACACACTCAAATTATATATGATA [CACACA_site5721],9.92 ± 0.099
8,AGGAATAAATAATTAACACACACAATCTTTTTTTTT [CACACA_site9027],9.74 ± 0.13
9,TAATAAGTATAAAATAGTACATATAAATATATCAAA [XGTACX_site8834],11 ± 0.73
10,ATAATTATATTCCATACACACATATATTTAAAGGTT [CACACA_site2957],10.1 ± 0.11
11,AGTATACATTCATTTTGTACTCAATGATTTGATAAC [XGTACX_site6787],11.1 ± 0.67
12,TATTTATTTATATTTACACACATTCATATAAATTCA [CACACA_site7628],9.915 ± 0.078
13,TTTTTTTTTTTATCTGCACACCCTTTTGTGAATATT [CACACA_site789],10.2 ± 0.33
14,TCTGAGAATGATAAAAAAAAAAAAAATGAAAAATTA [CACACA_negctrl_site1478],9.52 ± 0.028
15,ACGATATTTTTGGTGACACACATATATATATATATA [CACACA_site126],10.4 ± 0.32
16,CATTATGTTGTAAATACACACATACCTATACATACA [CACACA_site6485],10.2 ± 0.15
17,AACAATCAAATAGACACACACACACCCAAACATAAA [CACACA_site2757],10.2 ± 0.4
18,CTCCTACAAATATGTAGTACATTCAAAATAAATACC [XGTACX_site8207],11.6 ± 0.91
19,AATGAGCGTTAAAAATGTACAGAAAATTGGAATTAT [XGTACX_site5743],10.8 ± 0.54
20,AAAACTTTTAGTTATACACACAACATAGAAAATATT [CACACA_site6287],10.2 ± 0.12
21,AATTATTATATATATATATATATATATTTATATATT [GTGCAC_negctrl_site387],9.53 ± 0.14
22,AGTTCAAGGATTAAGACACACATATAAATAAATAAA [CACACA_site3662],10.1 ± 0.33

row,Sequence,gcPBM binding intensity (ln)
1,AAATAAAATAATTATAATACTAAAAATAATACATAA [GTGCAC_negctrl_site106],10.03 ± 0.099
2,TTTTTTTTGTAGAATTGTACTTATAAAATATATATA [XGTACX_site2116],11.1 ± 0.75
3,AAAAAATGGATGATCACACACTTCATAAAAGTTGCA [CACACA_site7109],9.87 ± 0.11
4,ATGCAATAAATATACACACACAAATCTATATTTATA [CACACA_site7179],9.93 ± 0.12
5,TTTTAATTATATTATGCACACACAATTGGAAAAAAA [CACACA_site8598],10.2 ± 0.23
6,AACAAATAAGATAAATGACTTAACAAAAGAAAAAAG [CACACA_negctrl_site1409],9.765 ± 0.035
7,AAAAAAAAAAAAAAAAGTACAGACGTCAAAAAAAAA [XGTACX_site4817],11.6 ± 0.76
8,TAATATATAAGTATTTGTACATATTCATTCATCTAT [XGTACX_site2935],10.8 ± 0.41
9,TTTTTTTTTTTTTTTTTTTTTTTTGGGTCCCATACA [CACACA_negctrl_site913],11.1 ± 0.99
10,GTAAAAAATATGAATACACACATAAAGGAAATAACA [CACACA_site1997],10.25 ± 0.042
11,AAAAAAAAAAAATTCACACACATATAAAAAATTAAG [CACACA_site728],9.905 ± 0.007
12,TAAATATATAAATACACACAAACATACATATATATA [CACACA_site4050],10 ± 0.21
13,ATATAAAAATATATTAATATAAATAAATGGACATAT [XGTACX_negctrl_site488],10.6 ± 0.56
14,GTCACATTGTTATATTGTACAAATGTCGTTCTTTTT [XGTACX_site8098],10.7 ± 0.4
15,CACTATCAATATATATGTACATATATATATATATAT [XGTACX_site7854],11.3 ± 0.72
16,TTTTTTTTTTTTTTTTTTTTTTTTAAATGCTTCTAA [TGCATGCA_negctrl_site253],9.46 ± 0.35
17,CTTATACATTATTAACGTACATGTTATATGAATAAC [XGTACX_site5752],11.3 ± 0.9
18,AACATTATAGGACACACACACACATATATATATATA [CACACA_site4721],10.9 ± 0.61
19,GAGTAAAAATTAAAATGTACATATTATATATATTTA [XGTACX_site1319],10.9 ± 0.39
20,TAATAAATAAGACACACACACATATATATATATTAT [CACACA_site1389],10.01 ± 0.042
21,TTTTAAGATATAAATTAATACTTATATATATAGATA [CACACA_negctrl_site22],9.695 ± 0.078
22,ATGAATGTCCCAAGATGTACAATTATATATAACACA [XGTACX_site4702],11.1 ± 0.75

row,Sequence,gcPBM binding intensity (ln)
1,AAATCCTTATTTTTTTGTACGTAATATTTTATATGG [XGTACX_site1530],11.3 ± 0.67
2,TATTTTTTAACACAACGTACATATAAAAAATATTTA [XGTACX_site6025],11.1 ± 0.72
3,TACAAATATATATGCACACACATATATGTATATGTG [CACACA_site3075],10.5 ± 0.22
4,TTAGATATAATATATACACACCAACGAACGAAGAAA [CACACA_site4763],10.3 ± 0.29
5,ATAATTATTAATATAGTGCATTGGCATAATAATATA [GTGCAC_site9810],10.1 ± 0.2
6,TTATACAACAAGAAAATTATAAAATGTAACATATAT [GTGCAC_negctrl_site406],9.9 ± 0.18
7,ATATTAATATAATGTGCATGTTCAATGATCTTTTTA [TGCATGCA_site22],9.9 ± 0.014
8,CAACTTATTAAAAGTCGTACAAATGGGAAGAAGGAA [XGTACX_site6325],11.5 ± 0.81
9,TGTGCGGAAATAAGTGCACACATAGATATCTGTATT [CACACA_site5935],10.5 ± 0.36
10,ATATATATATAGTACGCACACATAGTTGTACATTAA [CACACA_site2787],12 ± 1.3
11,CGTATGAGTAAATACACACCCACGTATATATATAAA [CACACA_site5728],10.3 ± 0.31
12,AGTAAATAACACAAATATGAATGAAAAAAAAAATAT [GTGCAC_negctrl_site235],9.94 ± 0.14
13,ATATATAAAAAAGCTAGTACACAAAAATATATAATG [XGTACX_site3001],11.4 ± 0.6
14,AAAAAAATTTATTAAAGTACTAGATAATCATATAAA [XGTACX_site1455],10.8 ± 0.54
15,TTCTTTTCTCTTTTAATCATATTATATAAATGAATA [CACACA_negctrl_site820],9.83 ± 0.16
16,ATTGCATTTGTAGATAATACAATATGGATTGTTATA [CACACA_negctrl_site1749],9.75 ± 0.042
17,GGATATATTATATGTACACACACATATAAGGGATTA [CACACA_site7884],11.4 ± 0.93
18,AGAATAATATAATAAAGTACAAACCTATCTAACTAC [XGTACX_site5477],11.2 ± 0.51
19,ATTATAAATAAATATTGTACTTATATGATCTATTTG [XGTACX_site3820],11.2 ± 0.87
20,CCTTTCACATATAATACATGCATTATTATATATGAA [TGCATGCA_site287],9.96 ± 0.12
21,AAAAATTTTATATTCACACACATATTTATATTTATA [CACACA_site6439],9.885 ± 0.021
22,ATTTATTTATTTTCATGTACATATGTAAATCAATAA [XGTACX_site3886],11.1 ± 0.71
